# Results are given in words; binding and its absence hold for the method and conditions named. Tags and fused reporters may be left off the sequences shown.
# T1: EHD2, yeast two-hybrid fusion (UniProt Q9NZN4)
# T1 sequence: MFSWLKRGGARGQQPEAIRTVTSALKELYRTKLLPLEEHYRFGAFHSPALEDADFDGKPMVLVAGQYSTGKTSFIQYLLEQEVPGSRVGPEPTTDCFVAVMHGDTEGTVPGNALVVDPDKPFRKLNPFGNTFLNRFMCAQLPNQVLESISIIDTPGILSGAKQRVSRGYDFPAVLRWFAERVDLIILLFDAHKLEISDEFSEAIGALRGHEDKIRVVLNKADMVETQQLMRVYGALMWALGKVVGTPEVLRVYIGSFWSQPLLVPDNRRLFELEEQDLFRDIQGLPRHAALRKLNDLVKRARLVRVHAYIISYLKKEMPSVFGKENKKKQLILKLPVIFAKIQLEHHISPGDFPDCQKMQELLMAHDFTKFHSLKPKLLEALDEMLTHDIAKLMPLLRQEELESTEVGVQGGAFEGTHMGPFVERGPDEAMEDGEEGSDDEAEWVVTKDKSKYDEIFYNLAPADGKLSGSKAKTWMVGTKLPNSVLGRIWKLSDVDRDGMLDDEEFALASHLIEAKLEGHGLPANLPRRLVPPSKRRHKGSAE
# T2: EHD3Δcc (full-length EHD3 with a valine to proline substitution at residue 203), yeast two-hybrid fusion (UniProt Q9NZN3)
# T2 sequence: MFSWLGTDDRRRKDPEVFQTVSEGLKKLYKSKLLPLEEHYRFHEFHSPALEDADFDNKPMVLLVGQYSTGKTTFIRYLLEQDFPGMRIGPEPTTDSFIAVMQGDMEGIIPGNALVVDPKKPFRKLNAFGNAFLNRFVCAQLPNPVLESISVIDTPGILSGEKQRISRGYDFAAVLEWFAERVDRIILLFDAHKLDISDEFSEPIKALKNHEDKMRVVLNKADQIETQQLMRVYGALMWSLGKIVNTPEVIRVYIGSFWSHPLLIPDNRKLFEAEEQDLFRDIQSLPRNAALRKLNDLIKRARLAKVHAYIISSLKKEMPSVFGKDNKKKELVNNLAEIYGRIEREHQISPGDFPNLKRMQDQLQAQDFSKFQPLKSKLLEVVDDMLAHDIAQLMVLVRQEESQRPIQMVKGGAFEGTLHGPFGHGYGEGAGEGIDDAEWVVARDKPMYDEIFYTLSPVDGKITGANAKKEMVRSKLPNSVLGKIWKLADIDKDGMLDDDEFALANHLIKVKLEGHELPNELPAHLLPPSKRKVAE
# Key:
# [1] = target: T1, EHD2, yeast two-hybrid fusion; test: two-hybrid; AH109 yeast co-transformed with pGADT7 and pGBKT7 fusions; growth on -His plates, 30°C, 72 h
# [2] = target: T2, EHD3Δcc (full-length EHD3 with a valine to proline substitution at residue 203), yeast two-hybrid fusion; test: as above
binder,measurement,setting,value
"EHD4, yeast two-hybrid fusion (protein, UniProt Q9H223 1-541) MFSWMGRQAGGRERAGGADAVQTVTGGLRSLYLRKVLPLEEAYRFHEFHSPALEDADFENKPMILLVGQYSTGKTTFIRYLLEQDFPGMRIGPEPTTDSFIAVMYGETEGSTPGNALVVDPKKPFRKLSRFGNAFLNRFMCSQLPNQVLKSISVIDSPGILSGEKQRISRGYDFCQVLQWFAERVDRIILLFDAHKLDISDEFSEAIKAFRGQDDKIRVVLNKADQVDTQQLMRVYGALMWSLGKVINTPEVLRVYIGSFWAQPLQNTDNRRLFEAEAQDLFRDIQSLPQKAAVRKLNDLIKRARLAKVHAYIISYLKKEMPSVFGKENKKRELISRLPEIYIQLQREYQISAGDFPEVKAMQEQLENYDFTKFHSLKPKLIEAVDNMLSNKISPLMNLISQEETSTPTQLVQGGAFDGTTEGPFNQGYGEGAKEGADEEEWVVAKDKPVYDELFYTLSPINGKISGVNAKKEMVTSKLPNSVLGKIWKLADCDCDGMLDEEEFALAKHLIKIKLDGYELPSSLPPHLVPPSHRKSLPKAD",binding,[1],no binding
same,binding,[2],no binding

# Reference: PMC7511005
